# In PubChem BioAssay (Tox21):
# “And” between values parts separate entries of the source, which are not always exact repeats. Equal values may be shown once. Inconclusive means that the source gave no clear call. Such entries were picked first, then a sample of the others. A potency beside an inconclusive call is a rough fit, not a confirmed value. The source made the active and inactive calls. Unless noted, calls come from the whole dose curve.
# Legend:
# [1] = qHTS assay to identify small molecule antagonists of the sonic hedgehog signaling (Shh) pathway (AID 1259369); note: nearly all actives have a fitted effect of over 45% in size; for activity change, negative = inhibition: % is set by controls: 0 for no effect and ±100 for the full control effect
# Outline: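 NIH/3T3 stable Gli1-Luc clone, 2,000 cells/well, 4hr settle; cpd + conditioned medium 24hr; Luc reagent 30min RT; luminescence.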
# [2] = target: Estrogen receptor beta (Homo sapiens) (UniProt Q92731); experiment: qHTS assay to identify small molecule agonists of the estrogen receptor beta (ER-beta) signaling pathway (AID 1259377; active = well fitted activation curve with a large enough effect in the signal ratio in the repeat runs, not every such curve was filed as active; inconclusive = weak or mixed curves, or effect the other way; the % refers to the signal ratio; for activation: % is set by controls: 0 for no effect and ±100 for the full control effect); conditions: ER-beta-UAS-bla HEK293T, beta-lactamase FRET ratio, 16 h; activation: at 92.4 µM (top of the series) unless noted
# Outline: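 HEK293T ER-beta-UAS-bla; 2% charcoal-stripped FBS; cells pre-incubated 6 hr, compound 16 hr, 37C/5% CO2; LiveBLAzer B/G FRET substrate 2 h RT; fluorescence intensity read.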
# [3] = target: Estrogen receptor beta (Homo sapiens) (UniProt Q92731); experiment: qHTS assay to identify small molecule antagonists of the estrogen receptor beta (ER-beta) signaling pathway (AID 1259378; active = well fitted inhibition curve with a large enough effect in the signal ratio in the repeat runs, not every such curve was filed as active; inconclusive = weak or mixed curves, or effect the other way; inactive = no such curve, though single readings can be large or run the other way; the % refers to the signal ratio; for activity, negative = inhibition: % is set by controls: 0 for no effect and ±100 for the full control effect); conditions: ER-beta-UAS-bla HEK293T, beta-lactamase FRET ratio, 16 h; activity, negative = inhibition: at 92.4 µM (top of the series) unless noted
# Outline: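 ER-beta-UAS-bla HEK293T cells in 2% charcoal-stripped FBS medium treated with compound plus 1nM final 17-beta-estradiol for 16 hr at 37C. Beta-lactamase reporter read by FRET substrate fluorescence after 2 hours at room temperature.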
# [4] = qHTS assay to identify small molecule agonists of the estrogen receptor beta (ER-beta) signaling pathway - cell viability counter screen (AID 1259380; active = well fitted curve in the direction sought with a large enough effect in the repeat runs; inconclusive = weak or mixed curves; inactive = no such curve, though single readings can be large; an effect the other way counts as inactive or inconclusive; note: nearly all actives have a fitted effect of over 30% in size)
# Outline: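 Measured: luminescence from CellTiter-Glo after 30 min at room temperature, added to wells already read for the LiveBLAzer FRET reporter (2 hr substrate); ER-beta-UAS-bla HEK293T cells had 16 hr compound treatment at 37C, 5% CO2.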
# [5] = target: Progesterone receptor (Homo sapiens) (UniProt P06401); experiment: qHTS assay to identify small molecule antagonists of the progesterone receptor (PR) signaling pathway (AID 1346795; active = well fitted inhibition curve with a large enough effect in the signal ratio in the repeat runs, not every such curve was filed as active; inconclusive = weak or mixed curves; the % refers to the signal ratio); conditions: PR-UAS-bla HEK293T, beta-lactamase FRET ratio, 16 h; activity change, negative = inhibition: at 92.4 µM (top of the series) unless noted
# Outline: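 Read-out is fluorescence from the LiveBLAzer B/G FRET substrate, cleaved by a UAS-controlled beta-lactamase in PR-UAS-bla HEK293T cells after 16 hr exposure to compound plus 1 nM promegestone (final), followed by 2 hr at room temperature.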
# [6] = qHTS assay to identify small molecule antagonists of the progesterone receptor (PR) signaling pathway - cell viability counter screen (AID 1346798; active = well fitted curve in the direction sought with a large enough effect in the repeat runs; inconclusive = weak or mixed curves; inactive = no such curve, though single readings can be large; an effect the other way counts as inactive or inconclusive; note: nearly all actives have a fitted effect of over 50% in size)
# Outline: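 HEK293T PR-UAS-bla, 2% charcoal-stripped FBS; 4 hr pre-plate; cpd + R5020, 16 h 37C; LiveBLAzer read first; then CellTiter-Glo 30 min RT, luminescence.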
# [7] = qHTS assay to identify small molecule agonists of the progesterone receptor (PR) signaling pathway - cell viability counter screen (AID 1346799); note: nearly all actives have a fitted effect of over 45% in size
# Outline: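 Luminescence from CellTiter-Glo, added after the beta-lactamase FRET read in the same wells, gave cytotoxicity in PR-UAS-bla HEK293T cells treated with compounds for 16 hr at 37C.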
# [8] = target: Progesterone receptor (Homo sapiens) (UniProt P06401); experiment: qHTS assay to identify small molecule agonists of the progesterone receptor (PR) signaling pathway (AID 1346784); conditions: PR-UAS-bla HEK293T, beta-lactamase FRET ratio, 16 h; activation: at 92.4 µM (top of the series) unless noted; note: nearly all actives have a fitted effect of over 30% in size; for activation: % is set by controls: 0 for no effect and ±100 for the full control effect
# Outline: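 Beta-lactamase reporter read-out: after 16 hr compound treatment at 37C and a further 2 hr at room temperature with LiveBLAzer B/G FRET substrate, fluorescence was measured in PR-UAS-bla HEK 293T cells grown in 2% charcoal-stripped serum.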
# [9] = qHTS assay to identify small molecule agonists of the androgen receptor (AR) signaling pathway in the presence of an antagonist - cell viability counter screen (AID 1259379; active = well fitted curve in the direction sought with a large enough effect in the repeat runs; inconclusive = weak or mixed curves; inactive = no such curve, though single readings can be large; an effect the other way counts as inactive or inconclusive; note: nearly all actives have a fitted effect of over 25% in size)
# Outline: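 MDA-kb2 viability measured by CellTiter-Fluor fluorescence in the same wells as the luciferase signal; nilutamide 3.0uM final; 15-point compound titration; 16 hr at 37C.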
# [10] = target: Thyrotropin receptor (Homo sapiens) (UniProt P16473); experiment: qHTS assay to identify small molecule antagonists of the thyroid stimulating hormone receptor (TSHR) signaling pathway (AID 1259385); conditions: TSHR-HEK293 cAMP HTRF, TSH-stimulated antagonist mode; activity change, negative = inhibition: at 92.4 µM (top of the series) unless noted; note: nearly all actives have a fitted effect of over 20% in size
# Outline: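 TSHR-HEK293 cells (800/well) plated 18 h, then compounds with Ro20-1724 and TSH at 1.5 ng/mL final, 30 min at room temperature. cAMP quantified by HTRF (cAMP-d2/anti-cAMP-cryptate, 1 h); 15 concentrations in triplicate.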
# Potency is the fitted concentration of half-maximal effect; tags give direction and shape of the fitted curve or compound fluorescence and quenching.
# UniProt Q92731, sequence (Q92731 whole entry, looked up): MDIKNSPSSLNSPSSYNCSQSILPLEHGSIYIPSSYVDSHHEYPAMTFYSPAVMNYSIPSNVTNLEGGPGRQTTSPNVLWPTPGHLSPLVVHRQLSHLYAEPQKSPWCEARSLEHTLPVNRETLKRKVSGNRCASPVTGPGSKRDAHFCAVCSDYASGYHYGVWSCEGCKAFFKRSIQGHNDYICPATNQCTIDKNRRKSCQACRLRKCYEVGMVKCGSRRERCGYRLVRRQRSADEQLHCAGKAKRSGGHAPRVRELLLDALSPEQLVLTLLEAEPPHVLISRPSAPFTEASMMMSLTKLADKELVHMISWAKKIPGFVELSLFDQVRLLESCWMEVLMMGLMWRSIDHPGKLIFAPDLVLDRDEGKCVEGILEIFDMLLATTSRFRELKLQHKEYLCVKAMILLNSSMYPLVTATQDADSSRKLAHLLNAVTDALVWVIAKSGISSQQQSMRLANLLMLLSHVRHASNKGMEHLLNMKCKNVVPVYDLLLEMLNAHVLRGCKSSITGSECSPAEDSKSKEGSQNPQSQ
# UniProt P06401, sequence (P06401 whole entry, looked up): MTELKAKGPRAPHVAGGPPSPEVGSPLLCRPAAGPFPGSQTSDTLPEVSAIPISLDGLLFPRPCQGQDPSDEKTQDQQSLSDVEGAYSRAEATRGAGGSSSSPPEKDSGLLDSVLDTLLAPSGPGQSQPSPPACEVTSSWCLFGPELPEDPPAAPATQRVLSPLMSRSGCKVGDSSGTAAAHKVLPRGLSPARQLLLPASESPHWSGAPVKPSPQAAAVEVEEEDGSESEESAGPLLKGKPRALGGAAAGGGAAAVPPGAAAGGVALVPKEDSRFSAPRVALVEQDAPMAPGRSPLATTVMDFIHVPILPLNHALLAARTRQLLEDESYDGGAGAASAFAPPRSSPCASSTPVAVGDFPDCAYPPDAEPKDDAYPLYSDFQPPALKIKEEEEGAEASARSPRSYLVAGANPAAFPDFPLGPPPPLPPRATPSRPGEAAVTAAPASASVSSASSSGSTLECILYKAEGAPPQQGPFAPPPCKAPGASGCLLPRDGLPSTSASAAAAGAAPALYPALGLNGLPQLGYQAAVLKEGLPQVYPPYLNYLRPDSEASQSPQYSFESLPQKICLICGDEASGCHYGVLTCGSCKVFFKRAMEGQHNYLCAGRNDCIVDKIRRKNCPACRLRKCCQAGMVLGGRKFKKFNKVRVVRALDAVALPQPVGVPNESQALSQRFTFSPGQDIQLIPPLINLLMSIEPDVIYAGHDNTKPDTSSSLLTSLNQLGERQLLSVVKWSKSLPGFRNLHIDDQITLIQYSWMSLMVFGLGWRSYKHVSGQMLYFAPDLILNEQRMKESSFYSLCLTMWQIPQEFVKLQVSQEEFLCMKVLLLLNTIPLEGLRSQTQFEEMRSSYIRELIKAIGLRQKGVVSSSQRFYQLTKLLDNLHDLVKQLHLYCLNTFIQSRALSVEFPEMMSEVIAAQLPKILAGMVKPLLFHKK
# UniProt P16473, sequence (P16473 whole entry, looked up): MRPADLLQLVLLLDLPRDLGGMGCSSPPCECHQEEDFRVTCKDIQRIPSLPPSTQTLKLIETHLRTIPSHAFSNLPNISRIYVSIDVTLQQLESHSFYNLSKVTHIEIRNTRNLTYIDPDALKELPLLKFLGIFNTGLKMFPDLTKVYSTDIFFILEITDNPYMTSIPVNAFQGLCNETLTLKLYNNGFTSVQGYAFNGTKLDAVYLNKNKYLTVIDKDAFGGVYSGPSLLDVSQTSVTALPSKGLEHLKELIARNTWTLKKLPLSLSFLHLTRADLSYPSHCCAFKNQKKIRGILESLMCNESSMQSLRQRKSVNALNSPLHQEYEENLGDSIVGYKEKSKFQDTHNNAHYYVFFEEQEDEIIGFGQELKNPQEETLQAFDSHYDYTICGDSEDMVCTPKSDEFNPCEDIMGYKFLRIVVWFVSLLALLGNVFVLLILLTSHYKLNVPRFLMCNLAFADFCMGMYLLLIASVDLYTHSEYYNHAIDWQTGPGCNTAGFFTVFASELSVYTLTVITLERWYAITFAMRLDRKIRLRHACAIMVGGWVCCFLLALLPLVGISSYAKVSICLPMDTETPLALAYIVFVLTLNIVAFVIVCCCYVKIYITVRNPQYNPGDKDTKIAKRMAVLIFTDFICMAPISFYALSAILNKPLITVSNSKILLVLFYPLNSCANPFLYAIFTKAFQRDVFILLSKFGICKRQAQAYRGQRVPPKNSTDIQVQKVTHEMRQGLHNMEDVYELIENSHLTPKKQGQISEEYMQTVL
smiles,measurement,setting,value
COc1nn(CSP(=S)(OC)OC)c(=O)s1,Potency,[1],inconclusive: 27.3 µM [inhibitor]
same,Potency,[2],inconclusive: 68.6 µM
same,Potency,[3],inconclusive: 68.6 µM
same,Potency,[4],"inconclusive: 30.6 µM [cytotoxic, full curve, poor fit]"
same,Potency,[5],"inconclusive: 30.6 µM [rising, full curve]"
same,Potency,[6],"inconclusive: 30.6 µM [rising, full curve, poor fit]"
same,Potency,[7],"inconclusive: 0.969 µM [cytotoxic, full curve]"
Clc1ccc(CCC(Cn2ccnc2)Sc2c(Cl)cccc2Cl)cc1 (stereo unspecified),Potency,[1],active: 2.98 µM
same,Potency,[2],"inconclusive: 16.8 µM [falling, partial curve]"
same,Potency,[3],"inconclusive: 18.8 µM [cytotoxic, partial curve, poor fit]"
same,Potency,[8],"inconclusive: 26.6 µM [cytotoxic, partial curve, poor fit]"
same,Potency,[5],"inconclusive: 29.8 µM [falling, single point]"
same,Potency,[7],active: 21.1 µM
CNC(=O)Oc1ccc(N(C)C)c(C)c1,Potency,[1],inactive
CNC(=O)Oc1cccc2c1OC(C)(C)C2,Potency,[1],inactive
same,Potency,[2],"inconclusive: 27.3 µM [fluorescent, single point]"
same,activation,[2],inconclusive: 1.63%
same,Potency,[7],inactive
CCC1(CC)C(=O)N=C(O)NC1=O,Potency,[1],"inconclusive: 2.43 µM [inhibitor, single point]"
C[Si](Cn1cncn1)(c1ccc(F)cc1)c1ccc(F)cc1,Potency,[1],"inconclusive: 15.4 µM [inhibitor, full curve]"
same,Potency,[2],inactive
same,Potency,[3],inconclusive: 63.1 µM [inhibitor]
same,"activity, negative = inhibition",[3],inconclusive: -36.5%
same,Potency,[9],"inconclusive: 70.8 µM [cytotoxic, single point]"
same,Potency,[8],inactive
CC(=O)[C@H]1CC[C@H]2[C@@H]3CC[C@H]4C[C@](C)(O)CC[C@]4(C)[C@H]3CC[C@]12C,Potency,[1],inactive
same,Potency,[2],inactive
same,Potency,[3],active: 2.11 µM
CC(Cl)C(C)Cl (stereo unspecified),Potency,[1],"inconclusive: 75.9 µM [inhibitor, single point]"
same,Potency,[2],inactive
same,Potency,[3],inactive
same,Potency,[4],inactive
[CH3][Sn]([Cl])([Cl])[Cl],Potency,[1],"inactive and inconclusive: 9.69 µM [inhibitor, partial curve, poor fit]"
same,Potency,[2],"inconclusive: 27.9 µM [activator, partial curve]"
CC1(C)CC/C(=C/c2ccc(Cl)cc2)C1(O)Cn1cncn1 (stereo unspecified),Potency,[1],inconclusive: 12.1 µM [inhibitor]
same,Potency,[2],inactive
same,"activity, negative = inhibition",[3],inconclusive: -33.4%
same,Potency,[10],inconclusive: 43 µM
same,activation,[8],inconclusive: -15.3%
same,Potency,[5],inconclusive: 27.1 µM
same,Potency,[7],"inconclusive: 0.0858 µM [cytotoxic, full curve, poor fit]"
